In all, about 48,000 compounds went through this assay and about 120 (0.25%) were called active. Inconclusive results (about 4%) are left out. Calls come from the whole dose curve; as a rule, active = well fitted activation curve with a large enough effect; inconclusive = small, poorly fitted or top-dose-only effect, or another doubt; inactive = no such curve, though single readings can be large or run the other way. The list shows a part of the results.
Test: Primary qHTS for Identification of Small Molecule Activators of Huntingtin-Antisense Promoter Activity; note: nearly all actives have a fitted effect of over 55% in size
Settings: HEK293 HTT-AS promoter firefly luciferase reporter (activity 0% = vehicle and -100% = no light), 24 h; series mostly up to 57.5 µM; activity change, positive = activation: at the top concentration
Procedure, shortened: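 Quantitative HTS used concentration series of up to 57.5 uM final on HEK293 luciferase reporter cells, 24 h at 37 degrees C. Readout was Dual-Glo firefly luminescence.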

Activity change, positive = activation, inactive:
COc1ccc(CNC(=O)Cn2c(SCC(=O)N(C)c3ccccc3)nc3ccccc32)cc1 -4.49%, CCOC(=O)c1noc2nc(C)n(CC(=O)Nc3cc(Cl)ccc3OC)c(=O)c12 -7.4%, COc1cc(C(=O)Nc2ccc3nn(-c4ccc(F)cc4)nc3c2)cc(OC)c1OC -2.33%, CCCCn1c(=O)n(-c2ccc(Br)cc2F)c(=O)c2c3c(sc21)CN(C(C)=O)CC3 -17.4%, Cc1csc2nc(COC(=O)c3ccc(NC(=O)COc4ccccc4F)cc3)cc(=O)n12 -26.8%, COc1ccccc1CNC(=O)C(=O)NCC(c1cccs1)S(=O)(=O)c1ccc(F)cc1 (stereo unspecified) -27.9%, CC1=C(C(=O)OCC2CCCCC2)C(c2ccc(F)cc2F)CC(=O)N1 (stereo unspecified) -23.3%, Oc1c(C(c2ccccc2)N2CCN(Cc3ccccc3)CC2)sc2nc(-c3ccco3)nn12 (stereo unspecified) -11.9%, Cc1ccc(CNC(=O)C2CCN(S(=O)(=O)N3CCC(C)CC3)CC2)cc1 -10.6%, Cc1ccc(C(=O)Nc2nnc(S(=O)(=O)N3CCOCC3)s2)cc1 2.5%, COC(=O)c1ccc(NC(=O)C2(S(=O)(=O)c3ccc(C)cc3)CC2)cc1 0.861%, COC(=O)c1sc(-c2ccccc2)cc1NC(=O)c1cccc(F)c1 -5.71%, O=C(NCc1ccc(F)cc1)C1CCN(C(=O)c2ccc(-n3ccc4ccccc43)s2)CC1 -23.4%, Cc1ccc(CN2CCCn3nc(C(=O)NCCC(C)C)cc3C2=O)cc1 -2.18%, CCN(CC)CCNC(=O)c1cc(S(C)(=O)=O)ccc1OC 2.59%, COc1cccc(CNC(=O)c2c(C)nn(-c3cccc(C)c3)c2-n2cccc2)c1 -20.7%, O=C(NCCCc1ccccc1)c1nn(-c2ccccc2F)nc1CO -32.7%, O=C(NCCc1ccccc1)c1ccc(CSc2nc3cccnc3n2Cc2ccc(F)cc2)cc1 -15.5%, CC(=O)c1ccc(NC(=O)C2CCC(CNS(=O)(=O)c3ccc(Br)s3)CC2)cc1 (stereo unspecified) -3.96%, O=C(NC(=O)c1cccc(F)c1)Nc1ccc(-c2cc(C(F)(F)F)nn2-c2ccccc2)cc1 -19.6%, Cc1nc(-c2ccc(C)c(N3CCN(C(=O)Nc4ccccc4C(F)(F)F)CC3)c2)no1 -21.8%, Cc1cc(C)cc(-n2cnc3cc(C(=O)NCCc4ccccc4)ccc32)c1 4.82%, CCOC(=O)c1c(Oc2ccc(C(=O)OC)cc2)nnc(-c2ccccc2)c1-c1ccccc1 0.27%, Cc1ccc(C)c(N(C)C(=O)c2cn(C)c(=O)c3ccccc23)c1 -39.8%, COc1cc(NC(=O)Cn2c(SCc3ccc(F)cc3)nc3cccnc32)cc(OC)c1 2.83%, Cc1ccc(CCNC(=O)CCc2cn(Cc3ccccc3C)c3ccccc23)cc1 -13.9%, O=C(CNC(=O)c1ccccc1Cl)OCc1cc(=O)n2ccsc2n1 9.14%, Cc1cccc(NC(=O)c2cc(S(=O)(=O)N3CCCCC3)c[nH]2)c1C -18.2%, Brc1csc(CN2CCc3nc(Nc4ccccc4)ncc3C2)c1 4.2%, Cc1cccc(Cn2c(SCc3ccc(C(=O)N4CCCCCC4)cc3)nc3ccncc32)c1 -30.2%, Cc1ccc(S(=O)(=O)N2CCC(Oc3ccc(-n4cnnn4)cc3)CC2)cc1 -7.51%, COc1ccc(CC(=O)Nc2ccc3nc(Nc4cccc(Cl)c4)cc(C)c3c2)cc1OC -40.8%, COc1ccccc1-n1cc(-c2ccc(C)cc2)nc1S(=O)(=O)CC(=O)Nc1ccccc1C(F)(F)F 4.88%, COc1ccc(CNCCSc2nnnn2-c2ccccc2)cc1 -17.4%, COc1ccc(CCNC(=O)c2ccc3c(c2)N(Cc2cccc(C)c2)C(=O)c2ccccc2S3(=O)=O)cc1OC -18.7%, COc1ccccc1NC(=O)CSc1nnc(-c2cccc(Cl)c2)o1 15.7%, CCOc1ccccc1-c1nc(-c2ccc(-c3ccccc3)nc2OCC)no1 -19.9%, CCn1cc(S(=O)(=O)c2cc(C)cc(C)c2)c(=O)c2cc(F)c(N3CCOCC3)cc21 -15.2%, O=C(CCCN1CC=C(n2c(=O)[nH]c3ccccc32)CC1)c1ccc(F)cc1 -4.93%, COc1ccccc1Nc1c2c(nc3ccc(NC(=O)/C=C/c4cccc(OC)c4OC)cc13)CCCC2 -94.8%, Cc1ccc(Nc2c3c(nc4nncn24)CCC3)cc1 -13.4%, COc1ccc2nc(N(Cc3cccnc3)C(=O)CCc3ccccc3)sc2c1 -23.8%, COc1cc(OC)c(NC(c2nnc(-c3ccccc3)o2)c2ccc(F)cc2Cl)cc1Cl (stereo unspecified) -23.4%, CCc1ccccc1NC(=O)Cn1nnc(C(=O)OC)c1C(=O)OC -12.5%, CCN(CC)S(=O)(=O)c1ccc2c(c1)N(CC(=O)Nc1c(C)cccc1C)C(=O)CO2 -11.5%, COc1ccc(OC)c(N(CC(=O)NCc2ccccc2)S(=O)(=O)c2ccccc2)c1 8.09%, COc1ccccc1CCNC(=O)c1ccc2c(c1)c(C)c(C)n2C 6.03%, CCc1ccc(NCc2cc3cc4c(cc3n(CC(=O)Nc3ccc(Cl)cc3)c2=O)OCO4)cc1 0.0594%, COc1ccc(NC(=O)CSc2ncc(-c3ccc(Cl)cc3)[nH]2)cc1OC -27.8%, Cc1cc(S(=O)(=O)Nc2cccc(C(=O)O)c2)c(C)c(S(=O)(=O)c2ccccc2)c1 -16.8%, COC(=O)c1cc(NC(=O)CCc2c(C)nc3c4c(C)cc(C)nc4nn3c2C)cc(C(=O)OC)c1 -10.9%, CCOC(=O)c1sc2ccccc2c1S(=O)(=O)Nc1ccc(N(C)C)cc1 -40%, CCOC(=O)c1sc(N2C(=O)c3oc4cc(C)c(C)cc4c(=O)c3C2c2cccc(O)c2)nc1C (stereo unspecified) -1.72%, Cc1ccc(Cn2c(=O)n(CCCCC(=O)NCCc3ccc(Cl)cc3)c(=O)c3ccccc32)cc1 -36.8%, Cc1cc(C)cc(OCC(=O)NCC(c2ccc(Cl)cc2)N2CCCCC2)c1 (stereo unspecified) -7.7%, CC1CCc2c(sc3nnn(Cc4ccc(F)cc4)c(=O)c23)C1 (stereo unspecified) -22%, Cn1c(=O)c2c(n3c4ccccc4nc13)NC(=O)CC2c1ccccc1F (stereo unspecified) 0%, CCc1nnc2c(Nc3ccc(Br)c(C)c3)nc3ccccc3n12 4.45%, COc1ccc(S(=O)(=O)N2CCN(c3ccc(F)cc3)CC2)cc1-c1noc(C)n1 -25.5%, COc1cc(NC(=O)Cn2c(=O)n(Cc3ccccc3OC)c(=O)c3cccnc32)cc(OC)c1 -36.6%, Cc1ccc(C(=O)COC(=O)c2cc(-c3ccccc3)nc3ccccc23)cc1C -5.81%

From PubChem BioAssay AID1508624 (National Center for Advancing Translational Sciences (NCATS), 2021)
